Results reported in PubChem BioAssay AID360 (National Center for Advancing Translational Sciences (NCATS), 2006).
Out of some 48,000 compounds screened, about 550 (1.1%) were called active. Not shown: some 4% with an inconclusive outcome. Rule as the data show it: active = potency below about 15 µM; inconclusive = mostly about 16 µM to 33 µM; inactive = weaker than that. The list shows a part of the results.

molecular target: Lysosomal acid glucosylceramidase (Homo sapiens) (UniProt P04062); experiment: Glucocerebrosidase; conditions: purified enzyme, resorufin glucoside fluorescence (screen aimed at inhibitors), 20 min;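 also: the screen sought inhibitors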
In short: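 Normal human glucocerebrosidase (0.2 nM final) was assayed with resorufin β-D-glucopyranoside (30 uM final) in 50mM citric acid/KH2PO4, 10mM sodium taurocholate, 0.01% tween-20, pH 5.9. Compounds were titrated; fluorescence (Ex 548, Em 600) read after 20 min at RT.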
Potency is read from the fitted curve at half-maximal effect.

Chain of UniProt P04062 (P04062 whole entry, looked up): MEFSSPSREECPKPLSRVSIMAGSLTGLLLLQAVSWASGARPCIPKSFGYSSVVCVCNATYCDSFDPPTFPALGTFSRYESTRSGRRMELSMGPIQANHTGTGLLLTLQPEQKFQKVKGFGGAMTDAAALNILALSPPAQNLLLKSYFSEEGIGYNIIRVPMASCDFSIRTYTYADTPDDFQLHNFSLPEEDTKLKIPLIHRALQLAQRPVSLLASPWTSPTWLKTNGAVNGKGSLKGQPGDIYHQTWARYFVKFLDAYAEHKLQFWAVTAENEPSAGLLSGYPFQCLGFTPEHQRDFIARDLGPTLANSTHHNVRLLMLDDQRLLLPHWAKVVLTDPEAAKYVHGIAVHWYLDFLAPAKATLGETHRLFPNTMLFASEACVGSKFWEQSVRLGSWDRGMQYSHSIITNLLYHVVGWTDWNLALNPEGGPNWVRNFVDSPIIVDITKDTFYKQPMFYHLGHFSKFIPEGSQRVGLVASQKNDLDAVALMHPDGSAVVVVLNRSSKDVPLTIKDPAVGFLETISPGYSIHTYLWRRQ

Potency, inactive:
O=C1CCCc2c1cc(C(=O)NCc1ccco1)c(=O)n2-c1ccccc1 > 76.9 µM
CC(C)n1c(SC2C(=O)CC(C)(C)CC2=O)nc2c1c(=O)n(C)c(=O)n2C > 76.9 µM
CCOC(=O)Cc1csc(SCC(=O)Nc2cccc(C#N)c2)n1 > 76.9 µM
CCOC(=O)CCc1nn(C)c(=O)c2ccccc12 > 76.9 µM
Cc1cc(N2CCOCC2)n2nc(C)c(-c3ccccc3)c2n1 > 76.9 µM
CCOc1cc(S(=O)(=O)NCc2ccccn2)c(C)cc1C > 76.9 µM
CC(=O)c1cc2c(cc1NC(=O)CSc1nnc(C)s1)OCO2 > 76.9 µM
N#C/C(=C\c1ccco1)Sc1nc2ccccc2s1 > 76.9 µM
Cn1c(SCc2ccccc2)nnc1C1CCCNC1 (stereo unspecified) > 76.9 µM
O=c1oc2ccccc2c(N2CCCCC2)c1CN1CCCCC1 > 76.9 µM
COc1cccc(C2=NO[C@@H]3C(=O)N(c4ccc5c(c4)OCCO5)C(=O)[C@H]23)c1OC > 76.9 µM
O=C(Nc1nc(-c2ccc3c(c2)OCO3)cs1)c1ccncc1 > 76.9 µM
O=C(Oc1ccc2c(c1)OCO2)c1ccc(Br)c(S(=O)(=O)N2CCOCC2)c1 > 76.9 µM
COc1cccc(N(CC(=O)NCCSc2ccccc2)S(C)(=O)=O)c1 > 76.9 µM
Cc1ccc(-n2c(O)cnc2Nc2nc(C)cc(C)n2)cc1 > 76.9 µM
Clc1cccc2sc(N3CCOCC3)nc12 > 76.9 µM
Cc1ccc(NCc2nnc(SCCN3CCCCC3)n2CC2CCCO2)c(C)c1 (stereo unspecified) > 76.9 µM
N#CCCn1c(SCC(=O)NCC2CCCO2)nc2ccccc21 (stereo unspecified) > 76.9 µM
CCNc1nc(SC(C)C(=O)OC)nc(N2CCOCC2)n1 (stereo unspecified) > 76.9 µM
CS(=O)(=O)Nc1ccccc1C(=O)c1ccccc1 > 76.9 µM
CCOc1ccc(CCNC(=O)C2CCN(S(=O)(=O)CC)CC2)cc1OCC > 76.9 µM
COc1ccc(C)cc1NC(=O)c1cc2cc3ccc(C)cc3nc2o1 > 76.9 µM
CC(C)Oc1cccc(C(=O)O)c1 > 76.9 µM
CCNC(=O)CC1C(=O)N(c2ccc(F)cc2)C(=O)N1CCC(C)C (stereo unspecified) > 76.9 µM
Cc1ccc(S(=O)(=O)N2CCCN(S(=O)(=O)C3CCS(=O)(=O)C3)CC2)cc1 (stereo unspecified) > 76.9 µM
Cc1ccc2nc3c(cc(C#N)c(=N)n3CC3CCCO3)c(=O)n2c1 (stereo unspecified) > 76.9 µM
Cc1ccc(-c2noc(C3CCCN(C(=O)c4ccccc4)C3)n2)o1 (stereo unspecified) > 76.9 µM
CCOC(=O)Cn1c(C)c(Br)c(=O)c2cccc(C)c21 > 76.9 µM
O=C(Nc1ccc(NC(=O)C23CC4CC(CC(C4)C2)C3)cn1)c1ccco1 > 76.9 µM
Cc1ccc(Cn2ncc3c(NCCCN4CCOCC4)ncnc32)cc1
CCN(C(=O)COC(=O)C(Cc1ccccc1)N1C(=O)c2ccccc2C1=O)C1CCS(=O)(=O)C1 (stereo unspecified) > 76.9 µM
O=C(NCCN1CCOCC1)c1ccc(-c2ccccc2)cc1
CCOC(=O)CN(C(=O)CSc1nnc(-c2cccc(OC)c2)o1)c1ccc(F)cc1 > 76.9 µM
COC(=O)c1[nH]c2ccccc2c1NS(=O)(=O)c1ccc(F)c(C)c1 > 76.9 µM
Cc1ccccc1-c1nc2ccccc2c(=O)n1C1CCS(=O)(=O)C1 (stereo unspecified) > 76.9 µM
COP(=O)(/C=C/c1ccccc1)C(O)c1ccc(F)cc1 (stereo unspecified) > 76.9 µM
COc1ccc(OCCOCC(O)CN2CCOCC2)cc1 (stereo unspecified) > 76.9 µM
CCOc1ccccc1C1CC(=O)Nc2cc(OC)c(OC)c(OC)c21 (stereo unspecified) > 76.9 µM
COC(=O)c1sc(NC(=O)C2CCCO2)c(C(=O)OC)c1C (stereo unspecified) > 76.9 µM
CCC(c1nnnn1C(C)(C)C)N(CCOC)Cc1cc2cccc(C)c2n2nnnc12 (stereo unspecified) > 76.9 µM
Cn1c(Cc2csc(N)n2)nnc1SCC(=O)NC1CCCCC1 > 76.9 µM
c1ccc(CCc2nc(-c3cccnc3)no2)cc1 > 76.9 µM
Cc1ccc(Nc2c3c(nc4ncnn24)CCC3)cc1 > 76.9 µM
O=C(CSc1nc2[nH]ncc2c(=O)n1-c1ccccc1Br)NCc1ccco1 > 76.9 µM
Cc1onc(-c2ccccc2)c1C(=O)Nc1ccnn1C1CCCCC1 > 76.9 µM
CC1CCCN(C(=O)CSc2nnc(-c3ccc(S(=O)(=O)N4CCOCC4)cc3)n2C)C1 (stereo unspecified) > 76.9 µM
CCN(CC)c1ccc(NC(=O)C(C)C)cc1 > 76.9 µM
O=S1(=O)CCN2C(c3ccc4c(c3)CCCC4)=CSC2=N1 > 76.9 µM
O=C(CN1CCN(C(=O)c2ccccc2)CC1)Nc1ncc(Br)cc1Br > 76.9 µM
N#CCCSCc1ccc2oc(C(=O)O)cc2c1 > 76.9 µM
Brc1ccc(CSc2nnc(-c3cnccn3)n2Cc2ccco2)cc1 > 76.9 µM
O=C(Cn1c(=O)c2c(ncn2Cc2ccccc2)n(Cc2ccccc2)c1=O)NC1CC1 > 76.9 µM
COc1ccc(C(=O)n2ccc(C)n2)cc1Br > 76.9 µM
CCN1CCCC1CNC(=O)CSc1cc(=O)n(C)c2cc(Cl)ccc12 (stereo unspecified) > 76.9 µM
Cc1nc2cc(S(=O)(=O)C(F)(F)F)ccc2s1 > 76.9 µM
N#Cc1cc(-c2ccccc2)oc1NC(=O)c1ccco1 > 76.9 µM
COc1cc(C(=O)N(Cc2cc3ccccc3[nH]c2=O)CC2CCCO2)cc(OC)c1OC (stereo unspecified) > 76.9 µM
Cn1c(N)c(C(=O)COC(=O)c2ccco2)c(=O)n(C)c1=O > 76.9 µM
Cc1c(C(=O)O)oc2ccc(S(=O)(=O)NCc3ccc4c(c3)OCO4)cc12 > 76.9 µM
COc1ccc(CNC(=O)CSc2nnnn2-c2ccc(O)cc2)cc1 > 76.9 µM
c1ccc2c(c1)CCCN2Cc1nnnn1C1CCCC1 > 76.9 µM
CCOc1ccccc1-c1nc(C(N)=O)c2[nH]c(=O)n(-c3cccc(C)c3)c2n1 > 76.9 µM
Cc1nn(C)c(C)c1CN(C)C(=O)c1cnn2c1NC(c1ccccc1)CC2C(F)(F)F (stereo unspecified) > 76.9 µM
CCOC(=O)c1ccccc1NC(=O)CSc1nnc(COc2ccccc2C)n1C > 76.9 µM
COc1cc(C(=O)Nc2nc(-c3cccs3)cs2)cc(OC)c1OC > 76.9 µM
CCCCOC(=O)Cn1c(=O)c2c(nc(Br)n2Cc2ccccc2)n(C)c1=O > 76.9 µM
COc1ccc(-n2c3c(cc(C(=O)N4CCCCC4)c2=O)C(=O)CC(C)(C)C3)cc1 > 76.9 µM
Cc1cccnc1NCC(O)COc1ccccc1 (stereo unspecified) > 76.9 µM
c1ccc(Cn2ncc3c2ncn2nc(-c4ccncc4)nc32)cc1 > 76.9 µM
Cn1c(=O)[nH]c(=O)c2c1nc(SCCN1CCCCC1)n2CCCc1ccccc1 > 76.9 µM
O=C(NCN1CCc2ccccc2C1)c1ccccc1 > 76.9 µM
O=C(Cn1ncnn1)OCc1ccccc1Cl > 76.9 µM
Cn1c(=O)c2c(nc(CN3CCN(C(=O)c4ccco4)CC3)n2Cc2ccccc2)n(C)c1=O > 76.9 µM
COCCNC(=O)C(c1cccs1)N(C(=O)Cn1nnc2ccccc21)c1cccc(C)c1 (stereo unspecified) > 76.9 µM
Cn1nnnc1SCCNS(=O)(=O)c1ccccc1 > 76.9 µM
CC1(N2CCCCC2)CC2(O)C(=[N+]1[O-])CCC/C2=N\O (stereo unspecified) > 76.9 µM
CC1Cc2ccccc2N1C(=O)COC(=O)Cn1cnc2ccccc2c1=O (stereo unspecified) > 76.9 µM
Cc1nc2ccccc2n1-c1nc(-c2ccco2)cc(C(F)(F)F)n1 > 76.9 µM
Cc1ccc(S(=O)(=O)Cc2ccc(C(=O)NCCCN3CCCC3=O)o2)cc1 > 76.9 µM
O=C(O)CCn1nnc(-c2cccs2)n1 > 76.9 µM
Cc1ccc(-c2noc(CCCC(=O)N3CCOCC3)n2)cc1 > 76.9 µM
CN(C)Cc1cc(C(C)(C)c2cc(CN(C)C)c(O)c(CN(C)C)c2)cc(CN(C)C)c1O > 76.9 µM
Cc1cc(N2CCN(S(=O)(=O)Cc3ccccc3)CC2)n2ncnc2n1 > 76.9 µM
CCCCOc1[nH]c2nc(-c3ccco3)n(Cc3ccco3)c(=N)c2c1C#N > 76.9 µM
Cc1cc(NS(=O)(=O)c2ccc(NC(=O)CCc3ccccc3)cc2)no1 > 76.9 µM
COc1ccccc1-c1nn2c(-c3ccccc3Cl)nnc2s1 > 76.9 µM
OC1CN=C2C=CC=CN2C1 (stereo unspecified) > 76.9 µM
C/C=C/Cn1c(Br)nc2c1c(=O)n(C)c(=O)n2C > 76.9 µM
COc1ccc(OC)c2[nH]c(=O)c(CCNC(=O)c3ccc(Br)o3)cc12 > 76.9 µM
COC(=O)c1ccccc1COn1c(=O)c[n+]([O-])c2ccccc21 > 76.9 µM
COC(=O)c1[nH]c2ccc(C)cc2c1NC(=O)CN1CCCc2ccccc21 > 76.9 µM
